The whole screen tested about 390,000 compounds, of which about 17,000 (4.4%) were called active. This list was built around the results that the source calls inconclusive (neither active nor inactive); the mix of calls is not that of the screen. Calls come from the whole dose curve; as a rule, active = well fitted inhibition curve with a large enough effect; inconclusive = small, poorly fitted or top-dose-only effect; inactive = no such curve, though single readings can be large or run the other way. A potency beside an inconclusive call is a rough fit, not a confirmed value.
molecular target: Lysine-specific demethylase 4A (Homo sapiens) (UniProt O75164); assay: qHTS Assay for Inhibitors of JMJD2A-Tudor Domain; settings: AlphaScreen JMJD2A-Tudor / H3K4me3 peptide binding; activity change, negative = inhibition: at 114 µM (top of the series); note: nearly all actives have a fitted effect of over 50% in size
Sequence of UniProt O75164 (O75164 whole entry, looked up, the tested form may be a part): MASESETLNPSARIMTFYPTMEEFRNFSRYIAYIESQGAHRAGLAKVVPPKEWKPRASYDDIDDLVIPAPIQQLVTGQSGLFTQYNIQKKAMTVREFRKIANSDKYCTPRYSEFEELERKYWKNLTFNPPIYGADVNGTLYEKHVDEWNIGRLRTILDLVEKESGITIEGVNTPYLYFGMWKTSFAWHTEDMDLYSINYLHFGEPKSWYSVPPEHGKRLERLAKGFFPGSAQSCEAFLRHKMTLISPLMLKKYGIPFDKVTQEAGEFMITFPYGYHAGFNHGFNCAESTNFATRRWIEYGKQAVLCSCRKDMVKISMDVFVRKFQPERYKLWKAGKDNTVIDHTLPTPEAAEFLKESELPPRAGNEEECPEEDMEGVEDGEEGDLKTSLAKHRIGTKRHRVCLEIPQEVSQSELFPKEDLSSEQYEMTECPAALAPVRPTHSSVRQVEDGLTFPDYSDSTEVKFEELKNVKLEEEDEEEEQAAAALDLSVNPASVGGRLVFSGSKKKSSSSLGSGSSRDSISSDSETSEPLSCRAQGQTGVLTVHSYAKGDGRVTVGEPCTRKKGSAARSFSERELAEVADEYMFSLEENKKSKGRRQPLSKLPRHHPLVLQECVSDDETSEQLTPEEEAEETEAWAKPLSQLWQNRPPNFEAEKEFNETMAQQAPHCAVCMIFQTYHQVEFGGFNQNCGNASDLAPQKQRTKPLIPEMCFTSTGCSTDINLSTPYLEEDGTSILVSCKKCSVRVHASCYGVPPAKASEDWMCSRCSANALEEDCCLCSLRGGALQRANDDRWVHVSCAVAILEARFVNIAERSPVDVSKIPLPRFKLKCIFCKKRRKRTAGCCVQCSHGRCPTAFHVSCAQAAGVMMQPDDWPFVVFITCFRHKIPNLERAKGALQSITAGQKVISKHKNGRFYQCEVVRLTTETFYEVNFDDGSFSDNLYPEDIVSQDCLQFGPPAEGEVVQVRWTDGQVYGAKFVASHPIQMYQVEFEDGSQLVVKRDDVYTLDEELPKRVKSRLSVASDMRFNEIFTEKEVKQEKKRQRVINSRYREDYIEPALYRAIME
% is set by controls: 0 for no effect and ±100 for the full control effect; potency is the fitted concentration of half-maximal effect; tags give direction and shape of the fitted curve.

| Compound | Potency | activity change, negative = inhibition |
| --- | --- | --- |
| COc1ccccc1NC(=O)Nc1nn(C)c2cccc(N(C)C)c12 | inconclusive: 56.2 µM [inhibitor, partial curve, poor fit] | – |
| N#Cc1c(N)sc2c1CCCCCC2 | inconclusive: 50.1 µM [inhibitor, partial curve] | – |
| COc1ccc(-c2c(C)c3ccc(O)c(CN4CCCC4)c3oc2=O)cc1OC | – | inactive: -2.9% |
| COc1ccc(/C=N/NC(=O)CN(c2ccc(OC)cc2)S(=O)(=O)c2ccccc2)cc1 | inconclusive: 15.8 µM [inhibitor, full curve] | – |
| Cc1ccccc1NC(=O)Cc1nc(COC(=O)C(NC(=O)c2ccccc2C)C(C)C)cs1 (stereo not drawn) | – | inactive: -17.4% |
| O=C(Nc1ccc(Nc2ccccc2)cc1)c1ccc(Cl)cc1Cl | inconclusive: 8.91 µM [inhibitor, full curve, poor fit] | – |
| O=C(CN1CCN(c2ccc([N+](=O)[O-])cc2)CC1)c1ccccc1 | inconclusive: 79.4 µM [inhibitor, partial curve] | – |
| Oc1ccccc1CNc1nc2ccccc2n1CCN1CCCCC1 | inconclusive: 25.1 µM [inhibitor, full curve, poor fit] | – |
| CCOC(=O)C(CC)Sc1c(CC)cnc2c1c(=O)n(C)c(=O)n2C (stereo not drawn) | – | inactive: -6.49% |
| Cc1nc2ccccn2c1C(=O)N/N=C/c1cc(C)n(-c2ccc(Br)cc2)c1C | inconclusive: 56.2 µM [inhibitor, partial curve, poor fit] | – |
| Cc1ccc(OCCSc2nc3ccc(NC(=O)c4ccc(F)cc4)cc3s2)cc1 | – | inactive: -0.331% |
| Cc1ccc(S(=O)(=O)N2[C@@H](c3cccc(Cl)c3)C(C(=O)O)=CC[C@H]2c2ccc(C(C)C)cc2)cc1 | inconclusive: 89.1 µM [inhibitor, partial curve] | – |
| CC(C)CN1CCC(=O)N(C(CSc2ccc(Br)cc2)c2ccccc2)CC1 (stereo not drawn) | – | inactive: 6.21% |
| Cc1ccc(NC(=O)c2nc[nH]c2C(=O)N[C@H](C)c2ccccc2)cc1 | inconclusive: 44.7 µM [inhibitor, partial curve] | – |
| Cc1ccc(CNC(=O)c2nccnc2C(=O)O)cc1 | inconclusive: 35.5 µM [inhibitor, single point] | – |
| COc1ccccc1S(=O)(=O)Cc1ccc(C(=O)NCCN2CCCCCC2)o1 | – | inactive: -26.1% |
| COCCN(C(=O)c1cc2c(s1)CCC2)c1c(N)n(CC(C)C)c(=O)[nH]c1=O | inconclusive: 79.4 µM [inhibitor, single point] | – |
| O=C(Cc1c[nH]c2ccccc12)N1CCN(c2ccccc2)CC1 | – | inactive: -28.4% |
| O=C(CSc1nnc(-c2ccc(C(F)(F)F)cn2)o1)Nc1ccccc1Cl | active: 20 µM | – |
| COc1ccc(CNC(=O)COC(=O)[C@H](Cc2c[nH]c3ccccc23)NC(=O)c2cccs2)cc1 | inconclusive: 14.1 µM [inhibitor, full curve, poor fit] | – |
| Cc1cc(=O)oc2c(C(=O)/C=C\c3cccs3)c(O)ccc12 | inconclusive: 79.4 µM [inhibitor, partial curve] | – |
| Cc1sc(NC(=O)c2ccco2)c(CN2CCN(Cc3ccccc3)CC2)c1C | inconclusive: 39.8 µM [inhibitor, partial curve] | – |

| Compound | Potency | activity change, negative = inhibition |
| --- | --- | --- |
| Cc1ccc(NC(=O)Cn2c(-c3cncs3)nc3ccccc32)c(Br)c1 | – | inactive: -34.6% |
| Cc1ccccc1N1C(=O)CC(N(O)c2ccccc2)C1=O (stereo not drawn) | – | inactive: -6.76% |
| Cc1ccc2c(c1)C1C=CCC1C(C(=O)NCCCN1CCOCC1)N2 (stereo not drawn) | inconclusive: 89.1 µM [inhibitor, partial curve] | – |
| CC(=Nc1cccc(C)c1)c1sc2ccccc2c1O | inconclusive: 79.4 µM [inhibitor, partial curve] | – |
| O=C(CSc1nc2ccccc2nc1N1CCOCC1)Nc1ccccc1F | – | inactive: 20.4% |
| Nc1nonc1-n1nnc(C(=O)N/N=C/c2ccccn2)c1CNc1ccccc1 | inconclusive: 63.1 µM [inhibitor, partial curve, poor fit] | – |
| Oc1nc(Nc2ccc(Cl)cc2Cl)sc1/C=C1\C=Nc2ccccc21 | inconclusive: 31.6 µM [inhibitor, single point] | – |
| CC(=O)N1CCc2c(sc3c2c(=O)n(Cc2ccccc2)c(=O)n3Cc2cc(C)ccc2C)C1 | inconclusive: 12.6 µM [inhibitor, full curve, poor fit] | – |
| COc1cccc(-n2cn[nH]c2=S)c1 | inconclusive: 3.98 µM [inhibitor, full curve, poor fit] | – |
| Cc1ccc(S(=O)(=O)Cn2nnnc2C(C(C)C)N2CCc3ccccc3C2)cc1 (stereo not drawn) | active: 28.2 µM | – |
| Cc1csc2nc(-c3ccc(NS(=O)(=O)c4cc(F)ccc4F)cc3)cn12 | inconclusive: 56.2 µM [inhibitor, partial curve] | – |
| c1ccc(COc2cccc(CNCc3cccnc3)c2)cc1 | inconclusive: 7.94 µM [inhibitor, full curve, poor fit] | – |
| Cc1ccc(S(=O)(=O)N2Cc3ccccc3CC2C(=O)Nc2ccc3c(c2)OCO3)cc1 (stereo not drawn) | active: 79.4 µM | – |
| COc1ccccc1C(=O)Nc1ccc(C(=O)OCc2cc(=O)n3nc(C)sc3n2)cc1 | – | inactive: -16.2% |
| Cc1ccc(-c2nn3c(C)nnc3c3ccccc23)cc1S(=O)(=O)NCc1ccco1 | inconclusive: 56.2 µM [inhibitor, partial curve] | – |
| COCCn1c(C)cc(C(=O)COC(=O)c2ccc([N+](=O)[O-])o2)c1C | inconclusive: 50.1 µM [inhibitor, partial curve] | – |
| CC1(C)Cc2cccc(OCC(O)CN3CCN(c4ccccn4)CC3)c2O1 (stereo not drawn) | – | inactive: -17.6% |
| CN(C(=O)c1ccc2c(Cl)c3c(nc2c1)CCC3)c1ccccc1F | inconclusive: 20 µM [inhibitor, full curve, poor fit] | – |
| COc1ccc(O)c(C(=O)c2cc(C(=O)NCCc3ccccc3)c(=O)n(CCc3ccccc3)c2)c1 | inconclusive: 10 µM [inhibitor, full curve] | – |
| CNS(=O)(=O)c1cn(CC(=O)Nc2ccc(OC)cc2OC)cc1S(=O)(=O)NC | – | inactive: -4.14% |
| CCOc1cc(NC(=S)NCC2CCCO2)c(OCC)cc1NC(=O)c1cccc(F)c1 (stereo not drawn) | inconclusive: 50.1 µM [inhibitor, partial curve] | – |
